In paper PMC4336329 (PLoS ONE, 2015):
The campaign covered roughly 310,000 compounds. About 2,200 (0.71%) showed an effect of 50% or more. The effect is printed as a negative number. The list shows a part of the results.

Biological target: human ether-à-go-go-related gene (hERG) potassium channel (human, UniProt Q12809)
Test: primary screen, population patch clamp on CHO cells stably expressing hERG

Chain of human ether-à-go-go-related gene (hERG) potassium channel (Q12809 whole entry, looked up): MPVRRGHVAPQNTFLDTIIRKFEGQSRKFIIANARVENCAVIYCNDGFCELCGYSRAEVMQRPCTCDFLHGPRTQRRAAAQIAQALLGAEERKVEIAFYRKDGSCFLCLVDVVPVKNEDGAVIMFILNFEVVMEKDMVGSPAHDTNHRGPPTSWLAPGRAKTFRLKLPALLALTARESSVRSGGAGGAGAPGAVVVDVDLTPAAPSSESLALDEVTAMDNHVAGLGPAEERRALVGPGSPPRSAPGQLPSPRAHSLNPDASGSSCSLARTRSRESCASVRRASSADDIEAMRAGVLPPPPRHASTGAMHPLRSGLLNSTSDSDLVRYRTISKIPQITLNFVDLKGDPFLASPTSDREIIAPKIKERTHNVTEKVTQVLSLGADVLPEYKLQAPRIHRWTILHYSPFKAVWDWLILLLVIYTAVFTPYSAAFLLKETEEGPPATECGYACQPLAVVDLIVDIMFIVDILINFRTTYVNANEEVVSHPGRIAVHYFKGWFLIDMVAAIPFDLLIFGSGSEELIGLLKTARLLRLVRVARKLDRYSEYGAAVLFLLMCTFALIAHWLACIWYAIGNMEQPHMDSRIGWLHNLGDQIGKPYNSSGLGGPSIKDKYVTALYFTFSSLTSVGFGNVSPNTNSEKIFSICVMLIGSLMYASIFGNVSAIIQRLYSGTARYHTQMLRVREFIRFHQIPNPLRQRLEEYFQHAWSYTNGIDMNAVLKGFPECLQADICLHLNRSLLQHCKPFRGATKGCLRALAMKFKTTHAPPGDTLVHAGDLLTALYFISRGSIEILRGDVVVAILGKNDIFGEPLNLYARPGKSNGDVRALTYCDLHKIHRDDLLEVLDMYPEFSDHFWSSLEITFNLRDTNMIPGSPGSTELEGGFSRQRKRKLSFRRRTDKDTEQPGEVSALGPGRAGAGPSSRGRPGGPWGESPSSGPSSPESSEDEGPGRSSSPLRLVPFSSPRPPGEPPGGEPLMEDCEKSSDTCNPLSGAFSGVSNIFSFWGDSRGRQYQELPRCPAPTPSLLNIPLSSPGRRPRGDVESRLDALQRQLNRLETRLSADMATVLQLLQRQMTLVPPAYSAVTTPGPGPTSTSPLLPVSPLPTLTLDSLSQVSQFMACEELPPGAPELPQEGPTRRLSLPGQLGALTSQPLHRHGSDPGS

SMILES	hERG current change (%, negative = inhibition) at 1uM
Cc1ccccc1CCNCc1ccc(Br)cc1	-2.08%
CC(/C=N/n1cnnc1)=C\c1ccccc1	1.86%
CCCC1(c2ccccc2)NC(=O)N(CC(=O)Nc2cc(OC)cc(OC)c2)C1=O (stereo not drawn)	10.6%
CCc1nc(C)cn1S(=O)(=O)c1cc(Cl)c(OC)cc1Cl	4.64%
CCc1ccc(CNC(=O)C2CCN(S(=O)(=O)N3CCC4(CC3)OCCO4)CC2)cc1	3.92%
COc1ccc(CNCCc2ccc3c(c2)OCO3)cc1Br.O=C(O)C(=O)O	1.6%
CC(=O)NNS(=O)(=O)c1ccc(-c2cc(C(F)(F)F)n(C)n2)s1	2.67%
CS(=O)(=O)N1CCC(C(=O)N2CCN(C(c3ccccc3)c3ccccc3)CC2)CC1	4.84%
Cc1ccc(-c2cc(N)n(-c3ccccc3)n2)cc1	12.3%
CCC1CCCCN1C(=O)c1cc2c(=O)n3cccc(C)c3nc2s1 (stereo not drawn)	17.2%
COCCn1c(SCC(=O)Nc2nnc(C)s2)nnc1-c1c[nH]c2ccccc12	-0.313%
CCOC(=O)C1CCN(C(=O)Cn2cnc3sc(C)c(S(=O)(=O)N4CCC(C)CC4)c3c2=O)CC1	-39.9%
CC1c2cc3c(cc2CCN1C(=O)c1ccc(Br)cc1)OCCCO3 (stereo not drawn)	10.5%
CCOC(=O)c1ccccc1NC(=O)Cc1c(C(=O)O)n(C)c2ccccc12	8.48%
O=C(COc1ccc2c3c(c(=O)oc2c1)CCC3)N1CCCCC1	7.32%
CSc1ccccc1C(=O)NC1CCCCCC1	7.11%
Cc1ccc(NC(=O)CN(C)C(=O)c2ccc(C(F)(F)F)cc2)cc1	3.53%
O=C(Nc1ccc(F)cc1)Nc1nnc(-c2ccccc2)o1	2.34%
Cn1ccc(C(=O)Oc2ccc(C(=O)Nc3ccc(F)cc3F)cc2)n1	10.5%
Nc1nonc1-c1nc2ccccc2n1Cc1ccc(F)cc1Cl	11.2%
Clc1ccccc1Nc1nc2ccccc2o1	12.2%
Cn1c(-c2ccc(C(=O)c3ccccc3)s2)nc2ccccc21	15.3%

SMILES	hERG current change (%, negative = inhibition) at 1uM
Cc1cc2oc3ccc(NCCCn4ccnc4)cc3c(=O)c2cc1C	11.4%
O=C(CN1C(=O)C2CCCCC2C1=O)Nc1nc(-c2ccccn2)cs1 (stereo not drawn)	-1.29%
CCOC(=O)c1c(NC(=O)C2=C(C)NC(=S)NC2c2ccc(F)cc2F)sc(C)c1C (stereo not drawn)	3.2%
CC1CCN(C(=O)COC(=O)c2cc([N+](=O)[O-])ccc2N2CCOCC2)CC1	4.74%
CCOC(=O)c1ccc(NS(=O)(=O)N2CCCCCC2)cc1	0.402%
COc1ccc(NC(=S)Nc2ccc3cn[nH]c3c2)cc1	-5.74%
CC1(C(=O)O)CCC(C(=O)Nc2ccc(Cl)c(Cl)c2)C1(C)C (stereo not drawn)	13.9%
CSc1ccc(-c2sc(Nc3ccccc3)n[n+]2-c2ccc(F)cc2)cc1.[Cl-]	6.79%
CCOC(=O)c1ccc(S(=O)(=O)n2c(CN3CCCCC3)nc3ccccc32)cc1	15.9%
CC(=O)N1CCCc2cc(S(=O)(=O)N3CCCC(C(=O)Nc4ccccc4C)C3)ccc21 (stereo not drawn)	16%
Cc1cccc(C)c1NC(=O)CN(C)C(=O)COc1cccc2c1OC(C)(C)C2	12.3%
Cc1ccc(C(=O)CC2(O)C(=O)N(CN3CCOCC3)c3ccccc32)cc1 (stereo not drawn)	-0.566%
O=c1oc2ccccc2c2c1ncn2CCN1CCOCC1	1.44%
O=C(Cc1cccs1)Nc1ccc([N+](=O)[O-])cc1	19.9%
Br.Cn1ccnc1SCC(=O)c1ccc(O)cc1	13%
O=C(COC(=O)CN1C(=O)NC2(CCCC2)C1=O)Nc1ccccc1C(F)(F)F	12.5%
CCCn1c(O)c(N=NC(=O)CNC(=O)c2ccncc2)c2ccccc21	2.55%
Cc1nnc(SCc2ccon2)n1-c1ccccc1	14.2%
C=CCN1c2ccc(Br)cc2C(=O)CS1(=O)=O	13.1%
CSc1ccccc1C(=O)NCc1ccc2c(c1)OCO2	-11.3%
CNC(=O)COC(=O)C1CCN(S(=O)(=O)c2ccc3c(c2)OCCO3)CC1	16.9%
CCOc1ccc(Cl)cc1/C=N/NC(N)=O	7.89%

SMILES	hERG current change (%, negative = inhibition) at 1uM
Cc1ccc(C)c(NC(=O)CN(C)C(=O)c2cc(-c3cccs3)nn2-c2ccccc2)c1	-0.477%
CN(C)CCCNC(=O)c1cc(C(=O)C2CCCCC2)c[nH]1	4.7%
O=C(O)C(=O)O.c1ccc(COc2ccc(OCCN3CCCC3)cc2)cc1	-33%
CCN(CC)CCNC(=O)Cc1nn(CC)c(=O)c2ccccc12.Cl	0.738%
Cc1ccc(NC(=O)COc2cccc3c2OC(C)(C)C3)c(O)c1	1.98%
CCN1C=C(Cc2ccccc2C)C2=C(C1)C(c1ccccc1C)C(C#N)=C(N)O2.CCO (stereo not drawn)	7.42%
Cc1ccc(C(=O)NC(=S)NCc2ccccc2)cc1	9.22%
O=C(CCc1nc2ccccc2s1)NC1CCOC1=O (stereo not drawn)	9.91%
C/C(CC(=O)Nc1cc(C)ccn1)=N\NC(=O)c1cccc(C)c1O	9.51%
CCC(C)[C@H]1CN=C(N)N1CCc1cc(C(F)(F)F)cc(C(F)(F)F)c1 (stereo partly drawn)	9.54%
O=C(O)c1ccc(/C=N/Nc2nnnn2-c2ccccc2)cc1	17.3%
O=C(Nc1ccccc1C(=O)O)/C(=C/c1ccc([N+](=O)[O-])cc1)NC(=O)c1ccc(Br)o1	4.01%
Cc1ccc(S(=O)(=O)Nc2ccccc2F)cc1C(=O)N1CCN(c2ccccc2O)CC1	1.37%
O=C(CN1CCCC1)N1CCCc2c1c(=O)oc1ccc(OCc3ccccc3)cc21	-34.1%
O=C(Nc1nccs1)c1cccc(NC(=O)C(F)(F)F)c1	-5.99%
Cc1ccc(C(=O)Nc2cccc(C(F)(F)F)c2)cc1Nc1ncnc2nc[nH]c12	-4.34%
OC[C@@H]1CCCN1Cc1cn(-c2ccccc2)nc1-c1ccc2c(c1)OCO2	4.91%
Cc1cc(C)c2[nH]c(=O)c(C(c3nnnn3C(C)(C)C)N(Cc3ccco3)CC3CCCO3)cc2c1 (stereo not drawn)	14.6%
COc1ccc(N/N=C(\C#N)C(=N)N2CCOCC2)cc1	8.11%
Cc1nnc(NC(=O)CSc2nc3c(c(=O)n2CCc2ccccc2)SC(C)C3)s1 (stereo not drawn)	13.8%
COc1cccc(C(=O)NCC2CCCN(C3CCCCC3)C2)c1OC (stereo not drawn)	11.3%
Cc1ccc(S(=O)(=O)Nc2ncnc3sccc23)cc1C	6.23%

SMILES	hERG current change (%, negative = inhibition) at 1uM
O=C1CCc2cc(S(=O)(=O)NCc3ccc(Cl)cc3)cc3c2N1CC3	-2.01%
O=C(O)/C=C/C(=O)Nc1ccc(F)cc1F	12.5%
CCOC(=O)N1CCN(C(=O)CS(=O)(=O)Cc2nc(-c3ccccc3F)oc2C)CC1	0.789%
COc1ccc(-c2nc3ccc(C(=O)N4CCC5(CC4)OCCO5)cc3nc2-c2ccc(OC)cc2)cc1	6.29%
COc1ccc(OC2C(=O)N(Cc3ccc(F)cc3)C2c2cc(OC)c(OC)c(OC)c2)cc1 (stereo not drawn)	0.236%
Cc1ncoc1C(=O)N1CCCC(C(=O)c2cccc(C(F)(F)F)c2)C1 (stereo not drawn)	5.23%
COc1ccc(S(=O)(=O)N2CCc3ccccc3C2)cc1C(=O)O	1.57%
CCc1ccccc1N(CC(=O)N1CCN(c2ccccc2F)CC1)S(C)(=O)=O	12.8%
FC(F)(F)c1cccc(Nc2nc(N3CCCC3)nc(N3CCCC3)n2)c1	27.2%
O=C1N(c2ccccc2)c2ccccc2C1(Cc1ccncc1)Cc1ccncc1	5.83%
CCN(c1ccccc1)S(=O)(=O)c1cccc(C(=O)NCC(c2cccs2)N(C)C)c1 (stereo not drawn)	0.467%
Cc1ccc(Nc2n[nH]c(C)c2[N+](=O)[O-])cc1	12.2%
Cc1ccc[n+](CC(=O)Nc2ccc(N(C)C)cc2)c1.[Cl-]	14.5%
O=C(CN1C(=O)NC2(CCCCC2)C1=O)Nc1cccc(Cl)c1Cl	5.22%
Cc1cccc(C(=O)OC2CCOC2=O)c1O (stereo not drawn)	13.2%
COc1ccc(C)cc1S(=O)(=O)NCCc1ccccc1	-14%
CSc1ccc(OC2CCCCC2NS(=O)(=O)c2ccc(Cl)cc2)cc1 (stereo not drawn)	10.2%
CN(C)CCCN(C(=O)c1ccco1)c1nc2c(F)cc(F)cc2s1.Cl	-60.2%
COc1ccc(/C=C/C(=O)NC(=S)NCCc2ccc(OC)c(OC)c2)cc1	13.1%
Cc1cccc(NS(=O)(=O)c2ccc3c(c2)Cc2cc(S(=O)(=O)Nc4cccc(C)c4C)ccc2-3)c1C	3.6%
COc1ccc(OC)c(NC(=O)C2CCN(c3nc(C)cc(C)n3)CC2)c1	-3.75%
